# Measured values published in the supplement of paper PMC8047034.
# Counter-ions that a name gives are not always drawn. Some of the results follow. Single values are uncertain, as repeats are few or missing.
# What was measured:
# OVCAR4 = test: log2 surviving fraction (library drug vs vehicle, or drug + carboplatin vs carboplatin alone; relative to plate median); ovarian cancer lines: OVCAR4 is platinum-sensitive and Ov4Carbo platinum-resistant; higher = more cell survival; details: library drug concentration 10 µM, 7 days
# Ov4Carbo = test: as above; details: library drug concentration 10 µM, 7 days
Structure (SMILES),log2 surviving fraction (OVCAR4; carboplatin co-treatment 0 µM),log2 surviving fraction (OVCAR4; carboplatin co-treatment 5 µM),log2 surviving fraction (Ov4Carbo; carboplatin co-treatment 0 µM),log2 surviving fraction (Ov4Carbo; carboplatin co-treatment 5 µM)
OC(Cn1cncn1)(Cn1cncn1)c1ccc(F)cc1F [Fluconazole],0.451,1.5,0.959,-0.555
C[N+]1(C)[C@@H]2C[C@@H](OC(=O)[C@H](CO)c3ccccc3)C[C@H]1[C@@H]1O[C@@H]12 [Methscopolamine (Pamine)],0.409,1.49,1.44,-0.248
CC(C)[C@H]1CC[C@H](C(=O)N[C@H](Cc2ccccc2)C(=O)O)CC1 [Nateglinide (Starlix)],0.0273,0.415,0.244,0.138
N[C@@H](CSCCCO)C(=O)O [Fudosteine],-0.964,-0.213,-0.42,-0.853
Cc1cccc(C)c1NC(=O)C1CCCCN1C (configuration not stated) [Mepivacaine HCl],0.142,0.121,0.196,0.645
CCOc1nc2cccc(C(=O)OC(C)OC(=O)OC3CCCCC3)c2n1Cc1ccc(-c2ccccc2-c2nn[nH]n2)cc1 (configuration not stated) [Candesartan cilexetil (Atacand)],0.8,0.983,-0.112,1.11
COC(=O)C1=C(C#N)NC(C)=C(C(=O)OC(C)C)C1c1cccc([N+](=O)[O-])c1 (configuration not stated) [Nilvadipine (ARC029)],-1.97,-1.14,-1.87,-1.48
CC(=O)[C@H]1CC[C@H]2[C@@H]3CC=C4C[C@@H](O)CC[C@]4(C)[C@H]3CC[C@]12C [Pregnenolone],1.59,1.02,1.01,0.537
N=C(N)Nc1ccc(C(=O)Oc2ccc3cc(C(=N)N)ccc3c2)cc1 [Nafamostat mesylate],0.899,0.648,0.695,0.309
COc1ccccc1OCC(O)CN1CCN(CC(=O)Nc2c(C)cccc2C)CC1 (configuration not stated) [Ranolazine dihydrochloride],-2.73,1.54,-0.157,0.98
C[C@]12CC[C@H]3[C@@H](CC[C@@]45O[C@@H]4C(O)=C(C#N)C[C@]35C)[C@@H]1CC[C@@H]2O [Trilostane],-0.238,-1.58,0.576,-0.12
CCCCc1oc2ccccc2c1C(=O)c1cc(I)c(OCCN(CC)CC)c(I)c1 [Amiodarone HCl],-1.21,0.108,-1.31,-2.46
CC(S)C(=O)NCC(=O)O (configuration not stated) [Tiopronin (Thiola)],1.77,1.63,0.759,0.902
NS(=O)(=O)c1cc2c(cc1Cl)N=CNS2(=O)=O [Chlorothiazide],-2.5,1.03,0.806,0.0135
CCCC(CCC)C(=O)O[C@H]1C[C@H]2CC[C@@H](C1)[N+]2(C)C [Anisotropine Methylbromide],0.678,-0.256,0.223,0.36
Cc1ccc(Nc2nccc(N(C)c3ccc4c(C)n(C)nc4c3)n2)cc1S(N)(=O)=O [Pazopanib],0.221,0.307,-0.35,-0.312
Cn1c(=O)c2c(ncn2CC2OCCO2)n(C)c1=O [Doxofylline],-0.349,0.714,0.652,0.712
COc1c2ccoc2cc2oc(=O)ccc12 [Bergapten],1.18,0.647,0.181,0.848
CC(=O)[C@H]1CC[C@H]2[C@@H]3C[C@H](C)C4=CC(=O)CC[C@]4(C)[C@H]3[C@@H](O)C[C@]12C [Medrysone],-0.215,0.0966,-0.267,-0.0542
CN(C)CC/C=C1/c2ccccc2COc2ccc(CC(=O)O)cc21 [Olopatadine hydrochloride (Opatanol)],0.127,0.193,-0.429,0.000628
CN(C)CCC[C@@]1(c2ccc(F)cc2)OCc2cc(C#N)ccc21 [Escitalopram oxalate],0.151,0.0872,-1.11,-1.35
COc1ccc2[nH]c([S@@+]([O-])Cc3ncc(C)c(OC)c3C)nc2c1 [Esomeprazole magnesium (Nexium)],-0.000941,-0.00714,-0.0175,-0.401
CC(C)[C@H](N)C(=O)OCCOCn1cnc2c(=O)nc(N)[nH]c21 [Valaciclovir HCl],0.0606,0.407,0.175,-0.344
NC[C@H](CC(=O)O)c1ccc(Cl)cc1 [(R)-baclofen],1.29,1.69,0.68,1.51
CN(C)CCc1c[nH]c2ccc(Cn3cncn3)cc12 [Rizatriptan Benzoate (Maxalt)],1.09,-0.0536,0.42,0.364
CN1CCN(C2=Nc3cc(Cl)ccc3Nc3ccccc32)CC1 [Clozapine (Clozaril)],0.413,0.0864,-0.168,0.12
CC(C)CN(C[C@@H](O)[C@H](Cc1ccccc1)NC(=O)O[C@H]1CCOC1)S(=O)(=O)c1ccc(N)cc1 [Amprenavir (Agenerase)],-4.99,0.176,1.02,0.348
O=C(C1CCCCC1)N1CC(=O)N2CCc3ccccc3C2C1 (configuration not stated) [Praziquantel (Biltricide)],0.424,0.509,0.667,0.23
